Source: article PMC4336329 (PLoS ONE, 2015)
Among all 310,000 compounds or so, about 14,000 (4.5%) showed an effect of 50% or more. Effects have a minus sign here. The list shows a part of the results.

Target: human ether-à-go-go-related gene (hERG) potassium channel (human, UniProt Q12809)
Test: primary screen, population patch clamp on CHO cells stably expressing hERG
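Also: peak tail current of the secondary pulse compared with the same well before compound.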

Chain of human ether-à-go-go-related gene (hERG) potassium channel (Q12809 whole entry, looked up): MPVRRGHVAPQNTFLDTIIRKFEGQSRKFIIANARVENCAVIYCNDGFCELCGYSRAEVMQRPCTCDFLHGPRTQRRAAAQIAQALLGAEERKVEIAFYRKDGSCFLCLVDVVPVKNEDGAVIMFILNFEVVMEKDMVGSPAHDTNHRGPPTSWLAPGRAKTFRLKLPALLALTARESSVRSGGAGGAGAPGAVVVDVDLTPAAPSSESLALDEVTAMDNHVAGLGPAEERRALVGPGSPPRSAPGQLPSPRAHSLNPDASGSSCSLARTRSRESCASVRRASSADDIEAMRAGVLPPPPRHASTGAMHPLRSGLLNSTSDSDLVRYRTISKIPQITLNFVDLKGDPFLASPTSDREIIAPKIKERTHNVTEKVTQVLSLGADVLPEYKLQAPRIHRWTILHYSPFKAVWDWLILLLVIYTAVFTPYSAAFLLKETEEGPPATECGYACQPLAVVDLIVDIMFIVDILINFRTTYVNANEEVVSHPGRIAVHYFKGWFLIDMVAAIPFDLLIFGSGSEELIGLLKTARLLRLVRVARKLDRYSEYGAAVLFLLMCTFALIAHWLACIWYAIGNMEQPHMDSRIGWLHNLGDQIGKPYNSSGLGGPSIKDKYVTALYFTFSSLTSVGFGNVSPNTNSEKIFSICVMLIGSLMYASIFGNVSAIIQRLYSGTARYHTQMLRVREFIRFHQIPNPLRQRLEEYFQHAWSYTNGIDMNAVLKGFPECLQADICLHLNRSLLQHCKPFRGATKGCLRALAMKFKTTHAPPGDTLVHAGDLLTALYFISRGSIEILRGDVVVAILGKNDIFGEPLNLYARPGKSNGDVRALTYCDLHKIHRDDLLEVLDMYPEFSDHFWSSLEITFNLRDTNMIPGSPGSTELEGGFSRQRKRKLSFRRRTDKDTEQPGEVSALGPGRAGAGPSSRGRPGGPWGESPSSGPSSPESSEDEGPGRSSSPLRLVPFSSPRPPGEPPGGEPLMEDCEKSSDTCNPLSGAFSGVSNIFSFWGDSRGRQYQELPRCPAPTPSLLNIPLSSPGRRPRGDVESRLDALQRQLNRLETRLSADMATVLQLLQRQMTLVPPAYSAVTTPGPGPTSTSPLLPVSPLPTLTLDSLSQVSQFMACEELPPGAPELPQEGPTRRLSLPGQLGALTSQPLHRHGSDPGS

Row | SMILES | hERG current change (%, negative = inhibition) at 10uM
1 | Cc1ccccc1NS(=O)(=O)c1ccc2c(c1)NC(=O)CCS2 | -3.44%
2 | CCC(C)(C)n1nnnc1CN(Cc1cc2cc(OC)ccc2[nH]c1=O)C1CCCC1 | -40.1%
3 | COCCN(C(=O)CCC(=O)Nc1cccnc1)C(C(=O)NC1CCCCC1)c1ccccc1 (stereo not shown) | 1.81%
4 | COC(=O)N/N=C(\C)c1ccc2ccccc2c1OC(F)F | 11.9%
5 | CCN(CC)S(=O)(=O)c1ccc(C(=O)NNC(=O)C2CCN(S(=O)(=O)c3ccc(Cl)cc3)CC2)cc1 | -1.1%
6 | Cc1ccc(C(=O)Nc2ncccc2S(=O)(=O)c2ccccc2)cc1 | 6.57%
7 | COc1ccc(-c2cc3nc(-c4ccccc4)cc(N4CCC5(CC4)OCCO5)n3n2)cc1 | 3.55%
8 | c1csc(-c2nc(-c3ccc(-c4ccon4)s3)no2)c1 | 16.3%
9 | CCOc1ccc2nc(NC(=O)CSc3ccc(Cl)cc3)sc2c1 | 15.2%
10 | Cc1ccc(NC(=O)c2ccccc2F)c(NC(=O)c2ccccc2F)c1 | -20.1%
11 | CC1(C(=O)Nc2cccc(C(F)(F)F)c2)CO1 (stereo not shown) | 25.1%
12 | O=[N+]([O-])c1cc(C(F)(F)F)ccc1NCCOc1ccccc1 | -3.64%
13 | O=C(NCC1CCCO1)c1sc2ccccc2c1Cl (stereo not shown) | -3.61%
14 | O=C(NCc1ccc(Cl)cc1)c1ccccc1Oc1ccccc1 | -16.9%
15 | Cc1ccc2nc(N3CCN(C(=O)CCCC(=O)O)CC3)nc(-c3ccccc3)c2c1 | 5.94%
16 | COc1ccc(-c2nc(=S)c3c(n2Cc2cccnc2)CC(C)(C)OC3)cc1 | 2.43%
17 | CC(=O)Nc1ccc(S(=O)(=O)N[C@@H](C)C(=O)N(C)Cc2cccs2)cc1 | 11.8%
18 | CCc1cccc(NC(=S)Nc2cccc3ccccc23)c1 | 8.63%
19 | O=C(CN1C(=O)/C(=C/c2ccccc2)SC1=S)Nc1ncc(Cc2ccccc2)s1 | 7.31%
20 | CC(C)(Cc1cc(CC(C)(C)C(=O)O)cc(C(C)(C)C)c1)C(=O)O | 10.4%
21 | Cc1cc(SCC(=O)N/N=C/c2ccc(O)c(O)c2O)c(C)cc1Br | 7.06%
22 | O=C(COC(=O)CNC(=O)c1ccccc1F)Nc1nnc(-c2ccccc2)o1 | -12.7%

Row | SMILES | hERG current change (%, negative = inhibition) at 10uM
23 | CC(C)c1onc(C(=O)N2CCN(c3ccc(F)cc3)CC2)c1[N+](=O)[O-] | -19.9%
24 | Cc1ccc(S(=O)(=O)N(CC(=O)NCCC2=CCCCC2)Cc2ccccc2)cc1 | -27.9%
25 | Nc1nnnn1/N=C/c1ccccc1O | 20.2%
26 | COc1ccccc1NC(=O)c1ccccc1N(Cc1ccccc1)S(C)(=O)=O | 11.9%
27 | CC(C)(C)SCCNC(=O)CN(c1ccc(F)cc1)S(=O)(=O)c1ccccc1 | 0.876%
28 | CC(=O)Nc1ccc(S(=O)(=O)NCC2CCC(C(=O)N3CCN(c4ccccn4)CC3)CC2)cc1 (stereo not shown) | 19.3%
29 | Cc1cccc(N2C(=O)/C(=C/c3ccccn3)SC2=S)c1 | 13.1%
30 | COc1ccc([C@@H](O)[C@@H](N)c2ccccc2)cc1.Cl | -0.673%
31 | O=C1c2ccccc2C(=O)C12OC2c1ccc(Cl)cc1 (stereo not shown) | 6.63%
32 | CC1CCN(C(=O)Cn2c(=O)oc3cc(S(=O)(=O)N4CCCCC4)ccc32)CC1 | 10.8%
33 | CN1/C(=C\C(=O)CSc2nnc(NCc3ccccc3)s2)C(C)(C)c2ccccc21 | -13.1%
34 | COc1cccc(-c2nc(-c3ccc(NC(=O)c4ccncc4)cc3)no2)c1 | -0.767%
35 | COCCN(C(=O)CNC(=O)c1ccco1)C(C(=O)NC1CCCC1)c1ccc(F)cc1 (stereo not shown) | 11.9%
36 | COc1cc(-c2cc(=O)c3c(O)c(OC)c(OC)cc3o2)cc(OC)c1O | 4.87%
37 | CCCC(=O)Nc1nc2ccc(S(N)(=O)=O)cc2s1 | 4%
38 | CCOc1ncccc1C(=O)Nc1cccc(S(=O)(=O)N2CCCCC2)c1 | -7.03%
39 | CCOC(=O)c1sc2nc(CC(=O)OC)nc(N3CCN(c4ccc(OC)cc4)CC3)c2c1C | 7.34%
40 | Cc1ccc(S(=O)(=O)N2CCCC2CNC(=O)C(=O)NCc2ccccn2)cc1 (stereo not shown) | -14.1%
41 | CCOC(=O)c1c(C)n(-c2ccc(F)cc2)c2ccc(O)cc12 | 16.4%
42 | COc1cc(Nc2c3c(nc4ccccc24)CCC3)cc(OC)c1OC | -60%
43 | Cc1ccc2c(c1)C1OCCC1C1N2C(=O)C2C(C(=O)O)C3C=CC21O3 (stereo not shown) | 9.39%
44 | COc1ccc(NC(=O)Cn2c(C)csc2=O)c(OC)c1 | 2.46%

Row | SMILES | hERG current change (%, negative = inhibition) at 10uM
45 | CCN(CC)CCNC(=O)c1ccc2c(=O)n(CCc3ccccc3)c(=O)[nH]c2c1 | -30%
46 | CCCCOc1ccc(C(C)NC(=O)CCS(=O)(=O)Cc2ccc(Cl)cc2)cc1 (stereo not shown) | 10.2%
47 | COc1ccccc1C1=NN(C(=O)c2ccccc2)C(c2ccc(Br)cc2)C1 (stereo not shown) | 20.5%
48 | Cc1ccc(Nc2nc(/N=C/NO)n[nH]2)cc1C | 13.5%
49 | CC1CCN(C(=O)C(C)OC(=O)CSc2ccc([N+](=O)[O-])cc2)CC1 (stereo not shown) | -50.1%
50 | CC(=O)Nc1ccc(N2CCCC(C)C2)c([N+](=O)[O-])c1 (stereo not shown) | 2.88%
51 | CC(=O)OC(COc1cccc(C)c1)Cn1cnc2ccccc21.Cl (stereo not shown) | -37.3%
52 | COc1ccc(NC(=O)CSCc2ccc([N+](=O)[O-])cc2)cc1OC | -17.5%
53 | Cc1ccccc1-n1ncc2c1CC(C)(C)CC2NC(=O)c1cn[nH]c1C (stereo not shown) | -6.22%
54 | COC(=O)c1ccc(C(=O)OC)c(NS(C)(=O)=O)c1 | -1.73%
55 | CCOC(=O)N1CCN(C(=O)c2c(O)c3cccc4c3n(c2=O)CC4)CC1 | -0.319%
56 | COc1ccc(Cl)cc1NC(=O)CCCNC(=O)c1ccc(Cl)cc1 | -4.84%
57 | CC(C)(C)NC(=O)NC(=O)COC(=O)c1cccc(F)c1 | -1.01%
58 | CCC1=C(OC(=O)N(CC)CC)N2C(=O)OC(=NCC3CC3)[C@]2(C)[C@H]2C1=CC[C@H]1C(=O)N(CC(=O)OC)C(=O)[C@H]12 | -5.67%
59 | CCCn1nnc(NC(=O)C(C)C)n1 | 23%
60 | COc1ccc(/C=C2/C(=O)N(c3ccccc3)N=C2C)cc1OC | 14.1%
61 | Cc1cnc(C(=O)OCC(=O)Nc2cc(S(=O)(=O)N3CCCCC3)ccc2Cl)cn1 | 8.26%
62 | CC(C)[C@H](NC(=O)N1CCn2c1nc1ccccc12)C(=O)NCc1ccccc1Cl | -0.447%
63 | Cl.c1ccc(-n2cnc3cc(NCc4ccccn4)ccc32)cc1 | -20%
64 | COc1ccc(CCNC(=O)CSc2nc(-c3ccco3)cc(C(F)(F)F)n2)cc1 | -7.9%
65 | COc1ccc(OC)c(NC(=O)CCN2CCN(c3ccccc3F)CC2)c1 | -22.1%
66 | CN1CCc2c1nc1ccccc1c2NC(=O)CN1CCCC1 | -1.61%

Row | SMILES | hERG current change (%, negative = inhibition) at 10uM
67 | Cc1cc(C)c2c(N)c(-c3nnc(SCc4ccc(Cl)cc4)n3C)sc2n1 | 11.7%
68 | O=C(CN1C(=O)c2ccccc2S1(=O)=O)c1ccccc1Cl | -11.1%
69 | CC(=O)c1c(C)n(-c2ccc(Br)cc2)c2ccc(O)cc12 | 17.1%
70 | CC(=O)Nc1ccc(S(=O)(=O)Oc2ccccc2N2C(=O)C3C4CCC(C4)C3C2=O)cc1 (stereo not shown) | 3.09%
71 | Cc1ccc(C(C(=O)NC2CCCC2)N(Cc2ccccc2)C(=O)c2csnn2)o1 (stereo not shown) | 21.8%
72 | COc1ccc(Nc2nc(N/N=C/c3ccc(N(C)C)cc3)nc(C)c2[N+](=O)[O-])cc1 | 21.5%
73 | COC(=O)c1ccc(Cn2nnc3c(=O)[nH]c(C4CCCN(S(=O)(=O)c5ccccc5)C4)nc32)cc1 (stereo not shown) | 16.7%
74 | CC(C)Oc1ccc(/C(O)=C2/C(=O)C(=O)N(CCN3CCOCC3)C2c2ccccc2)cc1 (stereo not shown) | 13.6%
75 | CCOC(=O)CCSc1nc(-c2ccccc2)cc(C(F)(F)F)n1 | 4.47%
76 | CSc1c[n+]2c(n1C)CCC2.[I-] | 9.47%
77 | Brc1ccc(-c2ccccc2)cc1 | 0.132%
78 | CCOC(=O)N1CCN(c2c(NCCN3CCN(Cc4ccccc4)CC3)c(=O)c2=O)CC1 | -12.9%
79 | O=C(c1ccc(CS(=O)(=O)c2ccc(Br)cc2)o1)N1CCN(C2CCCCC2)CC1 | -22.4%
80 | COc1ccc(Cl)cc1NC(=O)CCN1C(=O)C2C3C=CC(C4CC34)C2C1=O (stereo not shown) | -24.4%
81 | COc1ccc(-c2nnc3ccc(SCC(=O)Nc4cc(C)on4)nn23)cc1OC | 6.55%
82 | CC(=O)Nc1ccc(N(C)S(C)(=O)=O)cc1 | -0.725%
83 | O=C1CN2C(=Nc3ccc(Br)cc3C2c2ccccc2)CCN1 (stereo not shown) | -16.5%
84 | Cc1ccccc1CC(=O)Nc1cccnc1 | 14.4%
85 | COc1ccccc1CCNC(=O)CCSc1nc(-c2ccco2)cc(C(F)(F)F)n1 | 13.6%
